This is one part of the list. Single values are uncertain, as repeats are few or missing.
Experiments:
Test in all cases: cell count relative to DMSO control; melanoma cells; higher = more viable cells
Conditions in all cases: library dose: low library concentration; 72 h
[1] = tested on: WM115
[2] = tested on: WM1716
[3] = tested on: WM1745
[4] = tested on: WM3526
[5] = tested on: WM3619
[6] = tested on: WM451Lu
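Also: cell number obtained by counting DAPI-stained nuclei in high-throughput microscope images with image analysis software, screen run in 1,536-well plates.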

Row | Compound | cell count [1] [%] | cell count [2] [%] | cell count [3] [%] | cell count [4] [%] | cell count [5] [%] | cell count [6] [%]
1 | COc1ccc(C2=N[C@@H](c3ccc(Cl)cc3)[C@@H](c3ccc(Cl)cc3)N2C(=O)N2CCNC(=O)C2)c(OC(C)C)c1 [Nutlin-3] + CO[C@H]1C[C@@H]2CC[C@@H](C)[C@@](O)(O2)C(=O)C(=O)N2CCCC[C@H]2C(=O)O[C@H]([C@H](C)C[C@@H]2CC[C@@H](OCCO)[C@H](OC)C2)CC(=O)[C@H](C)/C=C(\C)[C@@H](O)[C@@H](OC)C(=O)[C@H](C)C[C@H](C)/C=C/C=C/C=C/1C [everolimus] (first compound 0.1 µM, partner dose 0.02 µM) | 74.5 | 78.6 | 77.3 | 83.4 | 58.3 | 90.4
2 | Cc1cc(Nc2cc(N3CCN(C)CC3)nc(/C=C/c3ccccc3)n2)n[nH]1 + CN1CCN(c2ccc3nc(-c4c(N)c5c(F)cccc5[nH]c4=O)[nH]c3c2)CC1 [Dovitinib] (first compound 0.04 µM, partner dose 0.1 µM) | 110 | 98.8 | 89.9 | 76.5 | 106 | 98.5
3 | Cn1c(=O)n(-c2ccc(C(C)(C)C#N)cc2)c2c3cc(-c4cnc5ccccc5c4)ccc3ncc21 + COc1cc2c(Oc3ccc4[nH]c(C)cc4c3F)ncnc2cc1OCCCN1CCCC1 [cediranib] (first compound 0.004 µM, partner dose 0.4 µM) | 92.2 | 84.9 | 108 | 110 | 114 | 88.9
4 | CC(C)C[C@H](NC(=O)[C@H](Cc1ccccc1)NC(=O)c1cnccn1)B(O)O [Bortezomib] + Nc1ncn([C@H]2C[C@H](O)[C@@H](CO)O2)c(=O)n1 [decitabine] (first compound 0.001 µM, partner dose 0.1 µM) | 88.3 | 18.4 | 47.7 | 91.7 | 14.1 | 88.7
5 | Cc1cn(-c2cc(NC(=O)c3ccc(C)c(Nc4nccc(-c5cccnc5)n4)c3)cc(C(F)(F)F)c2)cn1 [nilotinib] + COc1cc(N2CCC(N3CCN(C)CC3)CC2)ccc1Nc1ncc(Cl)c(Nc2ccccc2S(=O)(=O)C(C)C)n1 [NVP-TAE684] (first compound 0.2 µM, partner dose 0.08 µM) | 93.3 | 104 | 72 | 79.5 | 58.2 | 89.5
6 | Cn1c(=O)n(-c2ccc(C(C)(C)C#N)cc2)c2c3cc(-c4cnc5ccccc5c4)ccc3ncc21 + Cn1nnc2c(C(N)=O)ncn2c1=O [temozolomide] (first compound 0.004 µM, partner dose 2 µM) | 87.8 | 87.9 | 95.2 | 91.8 | 96.2 | 87.2
7 | Cc1cc(Nc2cc(N3CCN(C)CC3)nc(/C=C/c3ccccc3)n2)n[nH]1 + COc1cc2c(Oc3ccc4[nH]c(C)cc4c3F)ncnc2cc1OCCCN1CCCC1 [cediranib] (first compound 0.04 µM, partner dose 0.4 µM) | 86.1 | 95.1 | 67.4 | 96.2 | 94 | 80.3
8 | COc1ccc(C2=N[C@@H](c3ccc(Cl)cc3)[C@@H](c3ccc(Cl)cc3)N2C(=O)N2CCNC(=O)C2)c(OC(C)C)c1 [Nutlin-3] + O=C(O)c1ccc(-c2c[nH]c3ncc(-c4ccccc4)cc23)cc1C1CCCC1 [GSK650394] (first compound 0.1 µM, partner dose 0.16 µM) | 92.6 | 78.8 | 101 | 79.4 | 62 | 97.4
9 | Cc1cn(-c2cc(NC(=O)c3ccc(C)c(Nc4nccc(-c5cccnc5)n4)c3)cc(C(F)(F)F)c2)cn1 [nilotinib] + N#Cc1c(O)c2c(-c3ccc(-c4ccccc4O)cc3)csc2[nH]c1=O [A769662] (first compound 0.2 µM, partner dose 2 µM) | 112 | 89.2 | 99.8 | 89.1 | 112 | 108
10 | CC(C)C[C@H](NC(=O)[C@H](Cc1ccccc1)NC(=O)c1cnccn1)B(O)O [Bortezomib] + CO[C@@H]1[C@H](N(C)C(=O)c2ccccc2)C[C@H]2O[C@]1(C)n1c3ccccc3c3c4c(c5c6ccccc6n2c5c31)C(=O)NC4 [Midostaurin] (first compound 0.001 µM, partner dose 0.08 µM) | 78.7 | 31.1 | 52.8 | 97.7 | 21.5 | 99.8
11 | Cn1c(=O)n(-c2ccc(C(C)(C)C#N)cc2)c2c3cc(-c4cnc5ccccc5c4)ccc3ncc21 + CO[C@@H]1[C@H](N(C)C(=O)c2ccccc2)C[C@H]2O[C@]1(C)n1c3ccccc3c3c4c(c5c6ccccc6n2c5c31)C(=O)NC4 [Midostaurin] (first compound 0.004 µM, partner dose 0.08 µM) | 74 | 66.7 | 80.6 | 85.3 | 71.6 | 102

From the supplement of paper PMC4604168 (melanoma cell lines)
